The chains are these.
B1: TPR 5TU (parent)
chain: GGAUCUUCUCGAUCUAACAAAAAAGACAAAUCUGCCACAAAGCUUGAGAGCAUCUUCGGAUGCAGAGGCGGCAGCCUUCGGUGGCGCGAUAGCGCCAACGUUCUCAACUAUGACACGCAAAACGCGUGCUCCGUUGAAUGGAGUUUAUCAUG

Experimental findings from the RNAGym collection of RNA variant scans (doi:10.1073/pnas.2313332121) are described below.

Variants at the background level are over-represented here.

Variants of B1 are the subject of this data set. Briefly: polymerase ribozyme fitness, log enrichment relative to wild type (log ratio); higher = more active; in vitro selection for triplet polymerase activity. Summed up:
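PCR was used to build mutant libraries for each subunit of a heterodimeric triplet polymerase ribozyme, which were then transcribed. A single in vitro selection round, in triplicate, used a frozen incubation at −7 °C and recovered extended constructs by gel excision, streptavidin beads and RT-PCR. Fitness is the logarithm of genotype enrichment relative to wild-type enrichment, averaged over replicates with inverse-variance weights. The logarithm is base 2, and after Illumina sequencing only genotypes with ≥10 input reads and ≥1 read per output were kept.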
For GGAUCUUCUCGAUCUAACAAAAGAGACAAAUCUGCCACAAAGCUUGAGGGCAUCUUCGGAUCCAGAGGCGGCAGCCUUCGGUGGCGCGAUAGCGCCAAUGUUCUCAACUAUGACAUGCAAAACGGGUGCUCCGUUGAAUGGAGUUUAUCAUG [A23G A49G G62C C99U C116U C125G], the “polymerase ribozyme fitness (log ratio)” value was ≤ -4.2. On to GGAUCUUCUCGAUCUAACAAAAGAGACAAAUCUGCCACAAAGCUUGUGAGCAUCUUCGGAUGCAGAGGCAGCAGCCUUCGGUGGCGGGAUAGCGCCAACGUUCUCAACUAUGACACGCAAAACGCGUGCUCCGUUGAACGGAGUUCAGCAUG [A23G A47U G70A C87G U139C U146C U148G], for which the “polymerase ribozyme fitness (log ratio)” value was ≤ -4.2. The same measure for GGAUCUUCUCGAUCUAACAAAAGAGACAAAUCUGCCACAAAGCUUGAGAGCGUCUUUGGAUGCAGAGGCGGCAGCCUUCGGUGGCGCGAUAGCGAGAACGUGCUCAGCUAUGACACGCAAAACGCGUGCUCCGUUGAAUGAAGUUUAUCAUG [A23G A52G C57U C95A C96G U102G A107G G141A]: ≤ -4.2; for GGAUCUUCUCGAUCUAACAAAAGAGACAAAUCUGGCACAAAGCUUGAGAGCAUCUUCGGAUGCAGAGGCGGCAGCCUUCGGUGGCGCGAUAGCGCCAACGUUCUCAACUAUGACACGCAAAACGCGUGCUCCGUUGAAUGGAGUUUAUCAUG [A23G C35G]: ≤ -4.2; for GGAUCUUCUCGAUCUAACAAAAGAGACAAAUCUGCCACAAAGCUUGUGAGCAUCUUCGGAUGCAGAGGCGGCAGCCUUCGGUGGCGCUAUAGCGCCAACGUUCUCAGCUAUGACACGCAAAACGCGUGCUCCGUUGAAUGGAGUUUAUCAUG [A23G A47U G88U A107G]: ≤ -4.2. For the variant GGAUCUUCUCGAUCUAACAAAAGAGACAAAUCUGCCACAAAGCUUGAGAGCAUCUUAGGAUGCAGAGGCGGAAGCCUUCGGUGGCGCGAUAGCGCAAACGUUCUCAACUAUGACACGCAAAACGCGUGCUCCGUUGAAUUGAGUUUAUCAUG [A23G C57A C72A C96A G140U], the “polymerase ribozyme fitness (log ratio)” value is ≤ -4.2. The value for GGAUCUUCUCGAUCUAACAAAAGAGACAAAUCUGCCACAAAGCUUGCGCGCGUCUUCGGAUGCCGAGGCGGCAGCCUUCGGUGGCGCGAUACCGCCAACGUUCUCAACUAUGACACGCAAAACGCGUGCUCCGUUGAAUGGAGUUUAUCAUG [A23G A47C A49C A52G A64C G92C] was ≤ -4.2.

With GGAUCUUCUCGAUCUAACAAAAGAGAGAAAUCUGCCACAAAGCUUGAGAGCAUCUUCGGAUGCAGAGGCGGCAGCCUUCGGUGGCGCGAUAGCGCCAACGUUCUCCACUAUGACACGCAAAACGCCUGCUCCGUUGAAUGGAGUUUAUCAUG [A23G C27G A106C G126C], the “polymerase ribozyme fitness (log ratio)” value is ≤ -4.2.

Take GGAUCUUCUCGAUCUAACAAAAGAGACAAAUCUGCCACAAAGCUUGAGGGCAUCUUCGGAUGCAGAGGCGGCAGCCUUCGUUGGCGCUAUAGCGCCAACGUUCCCAACUAUGACAUGCAAAACGCGUGCUCCGUUGAAUGGAGUUUAUCAUG [A23G A49G G81U G88U U104C C116U]: the “polymerase ribozyme fitness (log ratio)” value was ≤ -4.2. The same measure for GGAUCUUCUCGAUCUAACAAAAGAGACAAAUGUGCCACAAAGCUUGAGAGCAUCUUCGGAUGCAGAGGCAGCAGCCUUCGGUGGGGCGAUAGCGCCAACGUUCUCAACUAUGACACGCAAAACGCGUGCUCCGUUGAAUGGAGUUUAUCAUG [A23G C32G G70A C85G]: ≤ -4.2.

For GGAUCUUCUCGAUCUAACAAAAGAGACAAAUCUGCCACAAAGCUUGAGAGCAUCUUUGGAUGCAGAGGCGGCAGCCUUCGGUGGCGCGAUAGCGCCAACGUUCUCAACUAUGACACGCAAAACGCGUGCUCCGUUGAAUGGAGUUUAUCAUG [A23G C57U], the “polymerase ribozyme fitness (log ratio)” value is -2.27. The value for GGAUCUUCUCGAUCUAACAAAAGAGACAAAUCUGCCACAAAGCUUGAGUGCAUCUUCGGGUGCAGAGGCGGCAGCCUUCGGUGGCGCGAUAGCGCCAACGUUCUCAACUAUGACACGCUUACCGCGUGCUCCGUUGAAUGGAGUUUAUCAUG [A23G A49U A60G A119U A120U A122C] was -3.98; that for GGAUCUUCUCGAUCUAACAAAAGAGACAAAUCUGCCACUAAGCUUGAGAGCAUCUUCGGAUGCAGAGGCGGCAGCCUUCGGUGGCGCGAUAGUGCCAACGUUCUCAACUAUGACACGCAAAACGCGUGCUCCGUUGAAUGGAGUUUAUCAUG [A23G A39U C93U] was ≤ -4.2. The value for GGAUCUUCUCGAUCUAACAAAAGAGACAAAUCUGCCACAAAGCUUGAGAGCAUAUUCGGAUGCAGAGGCGGCAGCCUUCGGUGGCGCGAUCGCGCCAACGUUCUCAAUUAUGACAAGCAAAACGCGUGCUCCGUUGAAUGGAGUUUAUCAUG [A23G C54A A91C C108U C116A] was ≤ -4.2. For the variant GGAUCUUCUCGAUCUAACAAAAGAGACAAAUCUGCCACAAAGCUUGAGAGAAUCUUCGGAUGCAGAGGCGGCAGCCUUCGGUGGCGCGAUAGGGCCAACGUUCUCAACUAUGACACGCAAAACGCGUGCUCUGUUGAAUGGAGUUUAUCAUG [A23G C51A C93G C132U], the “polymerase ribozyme fitness (log ratio)” value was ≤ -4.2. For GGAUCUUCUCGAUCUAACAAAAGAGAUAAAUCUGCCACAAAGCUUGAGAGCAUCUACGGAUCCAGAGGCGGCAGCCUUCGGUGGCGCGAUAGCGACAACGUUCUCAACUAUGACACGCAAAACGCGUGCUCCGUUGAAUGGAGUUUAUAAUG [A23G C27U U56A G62C C95A C149A], the “polymerase ribozyme fitness (log ratio)” value was ≤ -4.2. GGAUCUUCUCGAUCUAACAAAAGAGACAAAUCUGCCACAAAGCUUGAGAGCAUAUACGGAUGCAGAGGCGGUGGCCUUCGGUGGCGCGAUAGCGCCAACGUUCUCAACUAUGACACGCAAAACGCGUGCUCCGUUGAAUGGAGUUUAUCAUG [A23G C54A U56A C72U A73G]: the “polymerase ribozyme fitness (log ratio)” value was ≤ -4.2. The value for GGAUCUUCUCGAUCUAACAAAAGAGACAAAUCUGUCACAAAGCUUGAGAGCAUCUUCGGAUGCAGAGGCGGUAGCCUUCGGUGGCGCGAUGGCGCCAACGUUGUCAACUAUGGGACGCAAAACGCGUGCUCCGUUGAAUGGAGUUUAUCAUG [A23G C35U C72U A91G C103G A113G C114G] was ≤ -4.2; that for GGAUCUUCUCGAUCUAACAAAAGAGACAAAUCUGUCACAAAGCUUGAGAGUAUCUUCGGAUGCAGAGGCGGCAGCCUUCGGUGGCGCGAUAGGGCCAACGUUCUCAACUAUGACACGCAAGUCGCGUGCUCCGUUGAAUGGAGUUUAUCAUG [A23G C35U C51U C93G A121G A122U] was ≤ -4.2.
